Data from the RNAGym collection of RNA variant scans (doi:10.1093/nar/gkz1192).
The source gives no read counts; variants with many changes may rest on few reads.

B1: CPEB3 Ribozyme (parent)
chain: UAACAGGGGGCCACAGCAGAAGCGUUCACGUCGCAGCCCCUGUCAGAUUCUGGUGAAUCUGCGAAUUCUGCUGUAUAUCUC

Variants of: B1
Assay: self-cleavage, relative activity (ratio to wild type); higher = more cleavage; in vitro, sequencing
Procedure, shortened: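 Relative activity compares each variant's cleaved/total read fraction with that of the unmutated ribozyme. To get these fractions, barcoded CPEB3 ribozyme libraries from rounds of error-prone PCR were transcribed with T7 RNA polymerase for 5 hours at 37°C and then given 15 min of DNase I treatment before EDTA was added. The RNAs were reverse transcribed with template switching and sequenced on Illumina, and DNA sequencing linked barcodes to variants. A minimum of 5 reads applied, and three batches were averaged.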
Variant UAACAGGGGGCCACAGCAGAAGCGUUCACGUCGCAGCCCCUGUCAGAUUCUGGUGAAUCCGUGAAUUCUGCCGUAUAUCUC [U60C C62U U72C] has a self-cleavage of 0.34.
With UAACAGGGGGCCACAGCAGAAGCGUUCACGUCGCAGCCCCUGUCAGAUUCUGGUGAAUCCGCGAAUUCUGCUGAAUAUCAC [U60C U74A U80A] the self-cleavage was 0.93.
With UAACAGGGGGCCACAGCAGAAGCGUUCACGUCGCAGCCCCUGUCAGAUUCUGGUGAAUCCGUGAAUUCAGCUGUAUAUCCC [U60C C62U U69A U80C] the self-cleavage was 0.36.
In the case of UAACAGGGGGCCACAGCAGAAGCGUUCACGUCGCAGCCCCUGUCAGAUUCUGGUGAAUCCGCGGAUUCCGCUGCAUAUCUC [U60C A64G U69C U74C], the self-cleavage is reported as 0.38.
Work on UAACAGGGGGCCACAGCAGAAGCGUUCACGUCGCAGCCCCUGUCAGAUUCUGGUGAAUCCGCGGAUUCUGCUGUAUACCUC [U60C A64G U78C] yielded a self-cleavage of 0.33.
Variant UAACAGGGGGCCACAGCAGAAGCGUUCACGUCGCAGCCCCUGUCAGAUUCUGGUGAAUCUGCGGAUUCAGCCGUAUAUCUC [A64G U69A U72C] has a self-cleavage of 0.38.
UAACAGGGGGCCACAGCAGAAGCGUUCACGUCGCAGCCCCUGUCAGAUUCUGGUGAAUCCGCGGAUUCAGCUGUAUAUCUC [U60C A64G U69A] gave a self-cleavage of 0.66.
UAACAGGGGGCCACAGCAGAAGCGUUCACGUCGCAGCCCCUGUCAGAUUCUGGUGAAUCCGCGAAUUCCGCAGUAUAUCUC [U60C U69C U72A] showed a self-cleavage of 0.41.
In the case of UAACAGGGGGCCACAGCAGAAGCGUUCACGUCGCAGCCCCUGUCAGAUUCUGGUGAAUCCGCGAAUUCUGCUGUACAUCCC [U60C U76C U80C], the self-cleavage is reported as 0.87.
For UAACAGGGGGCCACAGCAGAAGCGUUCACGUCGCAGCCCCUGUCAGAUUCUGGUGAAUCUGCAAUUUCUGCUGUAUAUCCC [G63A A65U U80C], the self-cleavage was 0.96.
Work on UAACAGGGGGCCACAGCAGAAGCGUUCACGUCGCAGCCCCUGUCAGAUUCUGGUGAAUCUGCGGAUUCUCCUGUACAUCUC [A64G G70C U76C] yielded a self-cleavage of 0.2.
Work on UAACAGGGGGCCACAGCAGAAGCGUUCACGUCGCAGCCCCUGUCAGAUUCUGGUGAAUCUCCAAAUUCUGCUGUGUAUCUC [G61C G63A A75G] yielded a self-cleavage of 0.39.
For UAACAGGGGGCCACAGCAGAAGCGUUCACGUCGCAGCCCCUGUCAGAUUCUGGUGAAUCGGUGAAUUCUGCUGUACAUCUC [U60G C62U U76C], the self-cleavage was 0.79.
Variant UAACAGGGGGCCACAGCAGAAGCGUUCACGUCGCAGCCCCUGUCAGAUUCUGGUGAAUCUGCGGAUUCCGCUGUAUGUCUC [A64G U69C A77G] has a self-cleavage of 0.41.
Work on UAACAGGGGGCCACAGCAGAAGCGUUCACGUCGCAGCCCCUGUCAGAUUCUGGUGAAUCCGCGUAUUCUGCUGUAUACCUC [U60C A64U U78C] yielded a self-cleavage of 0.16.
With UAACAGGGGGCCACAGCAGAAGCGUUCACGUCGCAGCCCCUGUCAGAUUCUGGUGAAUCCGCGAAUUCCGCUGUAUAUCCC [U60C U69C U80C] the self-cleavage was 0.49.
For UAACAGGGGGCCACAGCAGAAGCGUUCACGUCGCAGCCCCUGUCAGAUUCUGGUGAAUCCGCGAAUUCCGCUGUAUAUCAC [U60C U69C U80A], the self-cleavage was 0.45.
UAACAGGGGGCCACAGCAGAAGCGUUCACGUCGCAGCCCCUGUCAGAUUCUGGUGAAUCUGCUGAUUCUGCUGUUUAUCUC [G63U A64G A75U] showed a self-cleavage of 1.07.
For UAACAGGGGGCCACAGCAGAAGCGUUCACGUCGCAGCCCCUGUCAGAUUCUGGUGAAUCUGGGAAUUCGGCUGUAUACCUC [C62G U69G U78C], the self-cleavage was 0.24.
Work on UAACAGGGGGCCACAGCAGAAGCGUUCACGUCGCAGCCCCUGUCAGAUUCUGGUGAAUCCGCGGAUUCAGCUGUAUAUCCC [U60C A64G U69A U80C] yielded a self-cleavage of 0.27.
In the case of UAACAGGGGGCCACAGCAGAAGCGUUCACGUCGCAGCCCCUGUCAGAUUCUGGUGAAUCCGCGAAUUCUGCUGUAUAUACC [U60C C79A U80C], the self-cleavage is reported as 0.85.
Variant UAACAGGGGGCCACAGCAGAAGCGUUCACGUCGCAGCCCCUGUCAGAUUCUGGUGAAUCAGCGAAUUCUGCCGUAUAUCCC [U60A U72C U80C] has a self-cleavage of 0.76.
Variant UAACAGGGGGCCACAGCAGAAGCGUUCACGUCGCAGCCCCUGUCAGAUUCUGGUGAAUCUGCGGGUACUGCUGUAUAUCUC [A64G A65G U67A] has a self-cleavage of 0.15.
In the case of UAACAGGGGGCCACAGCAGAAGCGUUCACGUCGCAGCCCCUGUCAGAUUCUGGUGAAUCUGCGGAGUCUGCAGUAUAUCUC [A64G U66G U72A], the self-cleavage is reported as 0.16.
In the case of UAACAGGGGGCCACAGCAGAAGCGUUCACGUCGCAGCCCCUGUCAGAUUCUGGUGAAUCUGCGGAUUUUGCUGUAUACCCC [A64G C68U U78C U80C], the self-cleavage is reported as 0.37.
In the case of UAACAGGGGGCCACAGCAGAAGCGUUCACGUCGCAGCCCCUGUCAGAUUCUGGUGAAUCUGCUAAUUCUGCCGUAUGUCUC [G63U U72C A77G], the self-cleavage is reported as 1.23.
With UAACAGGGGGCCACAGCAGAAGCGUUCACGUCGCAGCCCCUGUCAGAUUCUGGUGAAUCCGCGGAUUCUGCUGUAUUUCUC [U60C A64G A77U] the self-cleavage was 0.34.
In the case of UAACAGGGGGCCACAGCAGAAGCGUUCACGUCGCAGCCCCUGUCAGAUUCUGGUGAAUCAGCGAAUUCUGCCGUGUAUCUC [U60A U72C A75G], the self-cleavage is reported as 0.45.
UAACAGGGGGCCACAGCAGAAGCGUUCACGUCGCAGCCCCUGUCAGAUUCUGGUGAAUCAGCGAAUUCUGCUGCUUAUCUC [U60A U74C A75U] gave a self-cleavage of 0.92.
With UAACAGGGGGCCACAGCAGAAGCGUUCACGUCGCAGCCCCUGUCAGAUUCUGGUGAAUCCGCGAAUUCUGCUGUAUACCAC [U60C U78C U80A] the self-cleavage was 0.93.
In the case of UAACAGGGGGCCACAGCAGAAGCGUUCACGUCGCAGCCCCUGUCAGAUUCUGGUGAAUCUGUGAAUCCUGCCGUAUAUCUC [C62U U67C U72C], the self-cleavage is reported as 0.36.
Variant UAACAGGGGGCCACAGCAGAAGCGUUCACGUCGCAGCCCCUGUCAGAUUCUGGUGAAUCUGCGGAUUCUGCUGUAUUUCCC [A64G A77U U80C] has a self-cleavage of 0.85.
UAACAGGGGGCCACAGCAGAAGCGUUCACGUCGCAGCCCCUGUCAGAUUCUGGUGAAUCCGCGAAUUCAGCUGUAUAUCCC [U60C U69A U80C] gave a self-cleavage of 0.27.
UAACAGGGGGCCACAGCAGAAGCGUUCACGUCGCAGCCCCUGUCAGAUUCUGGUGAAUCCGCGAAUUCAGCUGCAUAUCUC [U60C U69A U74C] showed a self-cleavage of 0.
